Test results published in PubChem BioAssay AID652104 (National Center for Advancing Translational Sciences (NCATS), 2013).
Hit rate of the full screen: of about 410,000 compounds, about 7,200 (1.8%) were called active. Inconclusive means that the source gave no clear call. Such entries were picked first, then a sample of the others. Calls follow the shape of the dose curve; as a rule, active = well fitted activation curve with a large enough effect; inconclusive = small, poorly fitted or top-dose-only effect, or another doubt; inactive = no such curve, though single readings can be large or run the other way. Potencies of inconclusive entries are left out as doubtful fits.

Assay: qHTS of TDP-43 Inhibitors; also: nearly all actives have a fitted effect of over 50% in size
Conditions: TDP-43 expressing yeast growth rescue, BacTiter-Glo, 24 h; series mostly up to 46.1 µM
Method in brief: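 Yeast cells expressing TDP-43 under galactose induction are exposed to compounds for 24 hr at 30 deg C. BacTiter-Glo luminescence measures growth, so protective compounds score as activators.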
Potency is read from the fitted curve at half-maximal effect; tags tell the direction and shape of the fitted curve.

| SMILES | Potency |
| --- | --- |
| COc1cc(OC)cc(-n2c(=O)[nH]c3cc(C(=O)NCCc4ccc(C)cc4)ccc3c2=O)c1 | inconclusive [activator, full curve, poor fit] |
| Cc1cccc(-c2cc3nc4c(c(NCc5ccco5)n3n2)CCCC4)c1 | inconclusive [activator, single point] |
| O=C(COc1ccc2ccccc2c1Br)Nc1cccnc1 | inconclusive [activator, single point] |
| O=C1C(Cl)=C(NCC2CCCO2)C(=O)N1Cc1ccccc1 (stereo not drawn) | inconclusive [activator, single point] |
| Cc1ccc2nc(-c3ccccc3)c(Cc3cccc(Cl)c3)n2c1 | inactive |
| Cc1cccc(OCC(=O)N2CCc3ccccc3C2)c1C | inconclusive [activator, partial curve] |
| O=C(CCSCc1ccccc1F)N1CCN(c2ccc(F)cc2)CC1 | active: 11.2 µM |
| CCN1N=C(c2cc(Cl)sc2Cl)CSC1=O | inconclusive [activator, single point] |
| CC1(C(=O)Nc2ccc(F)cc2F)CCN1C(=O)Cc1ccccc1 (stereo not drawn) | inconclusive [activator, single point] |
| O=C(Cc1cccc(NC(=O)C2CCN(C(=O)C3CCCCC3)CC2)c1)Nc1cccc(C(=O)N2CCOCC2)c1 | inactive |
| O=S(=O)(c1cccc(F)c1)N1CCN(c2ncnc3scc(-c4ccc(F)cc4)c23)CC1 | inconclusive [activator, partial curve] |
| N#C/C(=N\Nc1ccc(Cl)cc1)C(N)=S | inconclusive [activator, single point] |
| CSc1nc2ccc(S(=O)(=O)NC3CCCCC3)cc2s1 | inconclusive [activator, full curve, poor fit] |
| Cc1ccc(OCC(=O)NCCc2c[nH]c3ccccc23)cc1 | inconclusive [activator, single point] |
| Cc1ccc(C(=O)NS(=O)(=O)c2ccc(C)cc2)cc1 | inconclusive [activator, single point] |
| O=C(Nc1nc2c(F)cccc2s1)C1CC1 | inconclusive [activator, partial curve, poor fit] |
| CCc1nc2ccc(C(=O)NCc3ccc4c(c3)OCO4)cn2c1N(CC)Cc1cccc(Br)c1 | inconclusive [activator, partial curve] |
| O=C(O)c1ccc(Cn2cnc3scc(-c4ccccc4)c3c2=O)cc1 | inconclusive [activator, single point] |
